Assay results: the supplement of paper PMC4604168 (melanoma cell lines)
Some of the results follow. Most values come without repeats; read them as rough.

Tests used:
Test in all cases: cell count relative to DMSO control; melanoma cells; higher = more viable cells
Settings in all cases: library dose: standard library concentration; 72 h
G361 = system: G361
IPC-298 = system: IPC-298
IST-MEL1 = system: IST-MEL1
LB2518-MEL = system: LB2518-MEL
LOXIMVI = system: LOXIMVI
MEL-HO = system: MEL-HO
MZ2-MEL = system: MZ2-MEL
MeWo = system: MeWo
RPMI7951 = system: RPMI7951
RVH-421 = system: RVH-421
SkMel28 = system: SkMel28
SkMel2 = system: SkMel2
SkMel30 = system: SkMel30
SkMel5 = system: SkMel5
UACC257 = system: UACC257
UACC62 = system: UACC62
WM115 = system: WM115
WM1716 = system: WM1716
WM1745 = system: WM1745
WM3526 = system: WM3526
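Note: cells treated in 1,536-well plates, then fixed and DAPI-stained, with nuclei counted from automated high-throughput microscope images.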

| SMILES | cell count (G361) [%] | cell count (IPC-298) [%] | cell count (IST-MEL1) [%] | cell count (LB2518-MEL) [%] | cell count (LOXIMVI) [%] | cell count (MEL-HO) [%] | cell count (MZ2-MEL) [%] | cell count (MeWo) [%] | cell count (RPMI7951) [%] | cell count (RVH-421) [%] | cell count (SkMel28) [%] | cell count (SkMel2) [%] | cell count (SkMel30) [%] | cell count (SkMel5) [%] | cell count (UACC257) [%] | cell count (UACC62) [%] | cell count (WM115) [%] | cell count (WM1716) [%] | cell count (WM1745) [%] | cell count (WM3526) [%] |
| --- | --- | --- | --- | --- | --- | --- | --- | --- | --- | --- | --- | --- | --- | --- | --- | --- | --- | --- | --- | --- |
| CC1(C)NC(=O)N(c2ccc([N+](=O)[O-])c(C(F)(F)F)c2)C1=O [nilutamide] + C=CCn1c(=O)c2cnc(Nc3ccc(N4CCN(C)CC4)cc3)nc2n1-c1cccc(C(C)(C)O)n1 [MK1775] (first compound 5 µM, partner dose 0.1 µM) | 65.8 | 79.4 | 85.8 | 70 | 81.4 | 97.2 | 112 | 78.6 | 104 | 83.6 | 55.8 | 77.8 | 83 | 46.6 | 117 | 67.8 | 54.9 | 82.2 | 51.3 | 76.9 |
| Cn1cncc1[C@@](N)(c1ccc(Cl)cc1)c1ccc2c(c1)c(-c1cccc(Cl)c1)cc(=O)n2C [tipifarnib] + Cc1cc([N+](=O)[O-])ccc1NS(=O)(=O)c1cc(Cl)ccc1Cl [FH535] (first compound 0.05 µM, partner dose 5 µM) | 46.3 | 51.4 | 61.6 | 76.3 | 90.9 | 56.1 | 68.4 | 77.3 | 78.5 | 92.1 | 55.3 | 69.5 | 83.9 | 57.1 | 72.8 | 66.3 | 60.2 | 69.8 | 78.8 | 59.7 |
| C[C@@H]1CCN(C(=O)CC#N)C[C@@H]1N(C)c1ncnc2[nH]ccc12 + COc1cc2ncnc(Nc3ccc(Oc4ccccc4)cc3)c2cc1OC [SrcI1] (first compound 5 µM, partner dose 10 µM) | 77 | 81.7 | 84.1 | 134 | 85.7 | 88 | 72 | 88.5 | 51.5 | 110 | 96.3 | 93.8 | 106 | 75.5 | 92 | 80.7 | 79.5 | 80.2 | 61.9 | 72.8 |
| O=C(Nc1cccc(Cl)c1)Nc1ncc(CCNc2ncnc3ccsc23)s1 + c1cc(-c2cnn3cc(-c4ccc(OCCN5CCCCC5)cc4)cnc23)ccn1 [Dorsomorphin] (first compound 0.004 µM, partner dose 2 µM) | 64.5 | 66.4 | 80.4 | 56.6 | 71.8 | 69.5 | 57.4 | 42.6 | 55 | 82.3 | 36 | 64.4 | 98.8 | 79.3 | 53.9 | 75.4 | 33.6 | 52.3 | 44 | 60.9 |
| O=c1[nH]nc(Sc2ncc([N+](=O)[O-])s2)n1-c1ccc2c(c1)OCCO2 + Cn1c(Nc2ccc(C(F)(F)F)cc2)nc2cc(Oc3ccnc(-c4ncc(C(F)(F)F)[nH]4)c3)ccc21 [CHIR265] (first compound 1 µM, partner dose 0.4 µM) | 34.9 | 41.1 | 73.1 | 37 | 97.6 | 62.2 | 70.1 | 68.4 | 42.8 | 60 | 34.7 | 49.6 | 56.6 | 35 | 81.2 | 47.4 | 41.6 | 60 | 68.9 | 32.4 |
| CC1(C)NC(=O)N(c2ccc([N+](=O)[O-])c(C(F)(F)F)c2)C1=O [nilutamide] + CN(C)S(=O)(=O)c1ccc2c(c1)/C(=C/c1cc3c([nH]1)CCCC3)C(=O)N2 [SU6656] (first compound 5 µM, partner dose 2 µM) | 74 | 89.6 | 79.3 | 69.9 | 100 | 84.4 | 97 | 86.9 | 46.7 | 89.1 | 64.5 | 79.5 | 92 | 67.6 | 86.2 | 67.6 | 52.7 | 74.8 | 58.4 | 81 |
| O=c1[nH]nc(Sc2ncc([N+](=O)[O-])s2)n1-c1ccc2c(c1)OCCO2 + O=C(O)[C@@H]1[O][Sb](=[O])([O][Sb]2(=[O])[O][C@H]([C@H](O)CO)[C@H](O)[C@H](C(=O)O)[O]2)[O][C@H]([C@H](O)CO)[C@@H]1O [stibogluconate] (first compound 1 µM, partner dose 10 µM) | 101 | 106 | 110 | 94 | 74.2 | 110 | 93.8 | 107 | 89.1 | 105 | 93.8 | 96.1 | 85.8 | 76.5 | 114 | 82.7 | 104 | 86.8 | 82.2 | 111 |
| COc1cc(Nc2ncc(F)c(Nc3ccc4c(n3)NC(=O)C(C)(C)O4)n2)cc(OC)c1OC [Tamatinib] + CC1(C)NC(=O)N(c2ccc([N+](=O)[O-])c(C(F)(F)F)c2)C1=O [nilutamide] (first compound 2 µM, partner dose 5 µM) | 76.2 | 83.1 | 47.1 | 104 | 20 | 70 | 77.4 | 74.2 | 40.1 | 82.4 | 60.4 | 83.4 | 93.3 | 54.2 | 75.2 | 74.6 | 63.6 | 67.7 | 31.5 | 81.4 |
| O=C(O)c1ccc(-c2c[nH]c3ncc(-c4ccccc4)cc23)cc1C1CCCC1 + O=S(=O)(c1ccccc1)N(CC(F)(F)F)c1ccc(C(O)(C(F)(F)F)C(F)(F)F)cc1 [T0901317] (first compound 0.8 µM, partner dose 7 µM) | 55.5 | 66.2 | 77.2 | 90.6 | 84.2 | 74.4 | 76.1 | 76.3 | 70.2 | 68 | 62.1 | 65.9 | 92.5 | 66.4 | 78.2 | 84 | 75 | 82.5 | 60.6 | 75.4 |
| O=c1[nH]nc(Sc2ncc([N+](=O)[O-])s2)n1-c1ccc2c(c1)OCCO2 + CCN(CC)CCNC(=O)c1c(C)[nH]c(/C=C2\C(=O)Nc3ccc(F)cc32)c1C [sunitinib] (first compound 1 µM, partner dose 2 µM) | 82.5 | 78.6 | 85.4 | 62.7 | 129 | 91 | 90.7 | 66 | 60.2 | 77.4 | 75.2 | 60.8 | 65.3 | 63.7 | 87.1 | 52.6 | 68.1 | 86.7 | 37.8 | 62.2 |
| O=C(Nc1cccc(Cl)c1)Nc1ncc(CCNc2ncnc3ccsc23)s1 + COc1ccc(COc2ccc(Cc3cnc(N)nc3N)cc2OC)cc1 [GW2580] (first compound 0.004 µM, partner dose 5 µM) | 86.1 | 91.2 | 55.7 | 89.3 | 86.1 | 72.1 | 97.6 | 91.5 | 61.9 | 82.4 | 45 | 86.6 | 95.9 | 73.2 | 52.4 | 77.2 | 41.3 | 51.3 | 83.2 | 63 |
| O=c1[nH]nc(Sc2ncc([N+](=O)[O-])s2)n1-c1ccc2c(c1)OCCO2 + C[C@@H]1CCN(C(=O)CC#N)C[C@@H]1N(C)c1ncnc2[nH]ccc12 [CP690550] (first compound 1 µM, partner dose 5 µM) | 88.1 | 97 | 85.5 | 89.9 | 108 | 102 | 106 | 81.3 | 76.6 | 84.2 | 63.3 | 83.3 | 70.3 | 81.6 | 103 | 78 | 86.9 | 78.4 | 95.5 | 75.4 |
| COc1cc(Nc2ncc(F)c(Nc3ccc4c(n3)NC(=O)C(C)(C)O4)n2)cc(OC)c1OC [Tamatinib] + Cc1ccc(NC(=O)c2cccc(N(C)C)c2)cc1NC(=O)c1ccc(O)cc1 [ZM336372] (first compound 2 µM, partner dose 10 µM) | 59.8 | 78 | 59.7 | 88.9 | 33.1 | 67.2 | 63.2 | 66.2 | 31.7 | 110 | 58.5 | 52.4 | 95.6 | 55.3 | 70.6 | 50.9 | 66.9 | 77.2 | 32.2 | 72.5 |
| CC1(C)NC(=O)N(c2ccc([N+](=O)[O-])c(C(F)(F)F)c2)C1=O [nilutamide] + O=C1NC(=O)/C(=C/c2ccc(-c3ccc(F)cc3O)o2)S1 [AS252424] (first compound 5 µM, partner dose 5 µM) | 92.5 | 85.3 | 97.2 | 93.5 | 102 | 85.1 | 83.5 | 85.3 | 112 | 94.8 | 92.9 | 79.4 | 106 | 58 | 99.5 | 90.4 | 72.8 | 84.8 | 85.8 | 80.1 |
| Cn1cncc1[C@@](N)(c1ccc(Cl)cc1)c1ccc2c(c1)c(-c1cccc(Cl)c1)cc(=O)n2C [tipifarnib] + COc1ccc2c(c1)CCC1C2CCC2(C)C(NCCCCCCN3C(=O)C=CC3=O)CCC12 [U73122] (first compound 0.05 µM, partner dose 2 µM) | 70.9 | 84.8 | 80 | 78.5 | 86.3 | 91.6 | 90.9 | 67.1 | 15.8 | 90.2 | 41.8 | 84.9 | 101 | 74.9 | 114 | 69.4 | 73.9 | 42.3 | 73.5 | 87.7 |
| COc1cc(Nc2ncc(F)c(Nc3ccc4c(n3)NC(=O)C(C)(C)O4)n2)cc(OC)c1OC [Tamatinib] + COc1ccc2c(c1)CCC1C2CCC2(C)C(NCCCCCCN3C(=O)C=CC3=O)CCC12 [U73122] (first compound 2 µM, partner dose 2 µM) | 67.9 | 78.5 | 91.8 | 91.4 | 48.9 | 86.5 | 77.8 | 57.7 | 28.3 | 77 | 76 | 78.4 | 96.1 | 64.6 | 95.2 | 97.2 | 75 | 82.6 | 45.5 | 74 |
| COc1cc(Nc2ncc(F)c(Nc3ccc4c(n3)NC(=O)C(C)(C)O4)n2)cc(OC)c1OC [Tamatinib] + Cn1cncc1[C@@](N)(c1ccc(Cl)cc1)c1ccc2c(c1)c(-c1cccc(Cl)c1)cc(=O)n2C [tipifarnib] (first compound 2 µM, partner dose 0.05 µM) | 67.8 | 66.9 | 46.8 | 60.7 | 28.9 | 71.1 | 85.5 | 63.8 | 20.1 | 81.4 | 59 | 69 | 88.5 | 55.1 | 79.7 | 58.2 | 47.2 | 58.7 | 45.5 | 67.2 |
